Results reported in PubChem BioAssay AID1030 (National Center for Advancing Translational Sciences (NCATS), 2008).
About 16,000 (7.3%) of roughly 220,000 compounds were called active. Inconclusive results, whose numbers are uncertain, are shown with a selection of clear calls. Calls come from the whole dose curve; as a rule, active = well fitted inhibition curve with a large enough effect (not every such curve was filed as active); inconclusive = small, poorly fitted or top-dose-only effect, or another doubt; inactive = no such curve, though single readings can be large or run the other way. Potencies of inconclusive entries are left out as doubtful fits.

Biological target: Aldehyde dehydrogenase 1A1 (Homo sapiens) (UniProt P00352)
Sequence of UniProt P00352 (P00352 whole entry, looked up): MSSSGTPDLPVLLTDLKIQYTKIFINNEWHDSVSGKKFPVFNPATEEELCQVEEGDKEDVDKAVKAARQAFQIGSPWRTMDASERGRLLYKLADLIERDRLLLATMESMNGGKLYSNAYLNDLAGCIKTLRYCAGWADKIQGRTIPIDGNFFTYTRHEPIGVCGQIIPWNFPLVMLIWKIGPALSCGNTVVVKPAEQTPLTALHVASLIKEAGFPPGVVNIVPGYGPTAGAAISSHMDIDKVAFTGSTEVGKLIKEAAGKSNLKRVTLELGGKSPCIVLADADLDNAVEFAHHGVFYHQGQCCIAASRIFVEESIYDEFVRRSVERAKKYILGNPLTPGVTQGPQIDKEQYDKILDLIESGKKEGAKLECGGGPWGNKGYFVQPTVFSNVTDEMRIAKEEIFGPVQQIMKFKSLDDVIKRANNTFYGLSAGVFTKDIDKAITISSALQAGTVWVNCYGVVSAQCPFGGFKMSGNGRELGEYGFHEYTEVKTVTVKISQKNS
Test: qHTS Assay for Inhibitors of Aldehyde Dehydrogenase 1 (ALDH1A1);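 for activity, negative = inhibition: plate controls were no enzyme wells and a reference inhibitor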
Conditions: Purified ALDH1A1, NADH fluorescence, propionaldehyde substrate; series mostly up to 75.3 µM; activity, negative = inhibition: at the top concentration
Potency is the fitted concentration of half-maximal effect; tags give direction and shape of the fitted curve.

SMILES	activity, negative = inhibition	Potency
COCCn1c(C)cc(C(=O)COC(=O)c2n[nH]c3ccccc23)c1C	inactive: 9.38%	–
CC(C)S(=O)(=O)CC(=O)c1ccc(Cl)cc1	inactive: -3.06%	–
CC(C)[C@@H](C(=O)OCC(=O)Nc1ccc2c(c1)OCO2)N1C(=O)c2ccccc2C1=O	inactive: -8.19%	–
CNC(=O)C(=O)NCC1OCCCN1S(=O)(=O)c1cccs1 (centres undefined)	–	inconclusive [inhibitor, single point]
COc1ccc(C2=NN(C(=O)c3cccnc3)C(c3ccccc3)C2)cc1 (centres undefined)	–	inconclusive [inhibitor, single point]
CCN(CC)CCN1C(=O)C(=O)/C(=C(/O)c2ccc(C)cc2)C1c1ccncc1 (centres undefined)	–	inconclusive [inhibitor, single point]
CCN(CC)S(=O)(=O)c1cccc(C(=O)N/N=C/c2ccc([N+](=O)[O-])o2)c1	–	inconclusive [inhibitor, partial curve]
CS(=O)(=O)N1CCN(c2ccc(C(=O)NC3C4CC5CC(C4)CC3C5)cc2[N+](=O)[O-])CC1 (centres undefined)	–	active: 14.1 µM
Cc1ccc(S(=O)(=O)/N=C2/C=C(Sc3ncn[nH]3)C(=O)c3ccccc32)c(C)c1	–	active: 12.6 µM
CCn1ccnc1CN(C)C(=O)CC1C(=O)NCCN1Cc1c(F)cccc1Cl (centres undefined)	–	inconclusive [inhibitor, single point]
Cn1c(=O)[nH]c(=O)c2c1nc(CN1CCN(c3cccc(Cl)c3)CC1)n2CCCc1ccccc1	–	inconclusive [inhibitor, full curve]
COc1ccc(OCC(=O)Nc2ccccc2C(=O)N2CCCC2)cc1	–	inconclusive [inhibitor, single point]
Cn1cccc1C(=O)NC(=O)COC(=O)Cc1coc2ccc3ccccc3c12	–	inconclusive [inhibitor, single point]
Brc1cc2c(cc1/C=N/Nc1nc(N3CCOCC3)nc(N3CCOCC3)n1)OCO2	–	active: 20 µM
N#Cc1c(SCC(N)=O)nc2c(c1-c1ccncc1)CCCC2	inactive: -5.19%	–
Cn1c(=O)c(CCc2ccccc2)nc2cnc(OCc3ccccc3)nc21	–	active: 11.2 µM
Cn1c(=O)c2cc(S(=O)(=O)NCCC(=O)Nc3ccc(F)cc3F)ccc2n(C)c1=O	inactive: -1.54%	–
CN1CCN(c2nc(-c3ccncc3)nc3ccccc23)CC1	–	inconclusive [inhibitor, single point]
Cc1onc(-c2ccccc2)c1C(=O)N1CCCSC1=Nc1ccccc1	–	active: 11.2 µM
Cc1cc(SCC(=O)NN=C2CCN(C(C)C)CC2)c(C)cc1Br	–	inconclusive [inhibitor, full curve]
Cc1nn2c(Nc3ccccc3)c3c(nc2c1-c1ccccc1)CCC3	–	inconclusive [inhibitor, single point]
CCN1CCC2(CC1)C(C#N)=C(N)Oc1c2sc2nc(C)cc(C)c12	–	inconclusive [inhibitor, single point]

SMILES	activity, negative = inhibition	Potency
CC(CC(=O)C1C(C)C=CCC1(C)C)NNC(N)=O (centres undefined)	inactive: 6.59%	–
O=C(Cc1noc2ccccc12)Nc1ccc(Cl)cc1	inactive: 3.88%	–
Cc1ccc(C2=C(Cl)C(=O)C(c3ccc(C)cc3)=C(Cl)C2=O)cc1	inactive: -3.43% [at 13.5 µM]	–
CCOc1ncccc1C(=O)Nc1ccc(OC)c(S(=O)(=O)N2CCCCC2)c1	–	inconclusive [inhibitor, single point]
COc1ccc(-n2c(N)c(C(=O)NCC3CCCO3)c3nc4ccccc4nc32)c(OC)c1 (centres undefined)	–	inconclusive [inhibitor, partial curve]
O=[N+]([O-])c1cc(C(F)(F)F)ccc1Sc1ccc2ccccc2n1	–	inconclusive [inhibitor, single point]
O=C(COC(=O)CSCC(=O)N1CCCCC1)NCc1ccc(F)cc1	–	inconclusive [inhibitor, single point]
COc1ccc(CNC(=O)CN(C(=O)Cn2nnc(-c3ccccc3F)n2)c2ccc(C)cc2)cc1	–	active: 8.91 µM
CSc1cccc(NC(=S)N(CCCN2CCCC(C)C2)Cc2cccs2)c1 (centres undefined)	inactive: -6.04%	–
CCCCC1=CC2=C(c3ccco3)C(=O)C(C)(OC(=O)c3ccc(OC)cc3)C(=O)C2=CN1C1CCCC1 (centres undefined)	–	inconclusive [inhibitor, single point]
S=c1[nH]nc([C@@H]2C[C@H]2c2ccccc2)n1-c1ccccc1	–	inconclusive [inhibitor, partial curve]
CCOC(=O)C1(CC2CCCCO2)CCN(C(=O)Nc2ccc(C)c(C)c2)CC1 (centres undefined)	inactive: -13.3%	–
CN(C(=O)COC(=O)c1ccc(Cl)cc1N)C1CCCCC1	–	inconclusive [inhibitor, single point]
CCOc1cc(/C=N/NC(=O)c2cc(-c3cccc(OC)c3)n[nH]2)ccc1O	–	inconclusive [inhibitor, single point]
O=C(COc1ccc(Br)cc1Cl)NC(=S)N1CCc2ccccc21	–	inconclusive [inhibitor, single point]
NC(=O)C1CCN(CC(=O)Nc2ccccn2)CC1	inactive: 12.6%	–
Cc1ccc(C(=O)ONc2ccc(N=NC(=O)c3ccccc3O)cc2)cc1	–	inconclusive [inhibitor, partial curve, poor fit]
CCCc1cc(=O)[nH]c(SCc2cc(=O)oc3cc(C)c(C(C)C)cc23)n1	–	inconclusive [inhibitor, single point]
CCOC(=O)CNC(=S)N(Cc1ccccc1)Cc1ccccc1F	–	inconclusive [inhibitor, single point]
O=C(C1CCC(CNS(=O)(=O)c2ccc(F)cc2)CC1)N1CCOCC1 (centres undefined)	inactive: 11.3%	–
COCCCNc1nc2c(-c3cccc(C(F)(F)F)c3)nnn2c2ccccc12	–	inconclusive [inhibitor, partial curve]
COCC(=O)N1CCC2(CCCN(c3cccc(-c4ccccc4)c3)C2)CC1	–	inconclusive [inhibitor, single point]
